Measured values as given in PubChem BioAssay AID1159614 (National Center for Advancing Translational Sciences (NCATS), 2016).
In all, about 45,000 compounds went through this assay and about 65 (0.1%) were called active. Calls come from the whole dose curve; as a rule, active = well fitted activation curve with a large enough effect; inconclusive = small, poorly fitted or top-dose-only effect; inactive = no such curve, though single readings can be large or run the other way. The list shows a part of the results.

Target: Galactocerebrosidase (Homo sapiens) (UniProt P54803)
Assay: A Novel Cell-Based Assay to Identify Small Molecules for B -Galactocerebrosidase; note: 0% is about no effect; nearly all actives have a fitted effect of over 65% in size
Conditions: 145M-Twi-hGALC-G270D cells (Twitcher mouse brain line with human GALC G270D), HMU-beta-Gal fluorescence, 48 h; series mostly up to 57.5 µM; activation: at the top concentration
Method in brief: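 Brain-derived Twitcher mouse 145M-Twi cells stably expressing human GALC-G270D or wild-type GALC, treated live, then residual GALC activity read by fluorescence of HMU-b-Gal substrate (0.1 mM final) in citrate-phosphate buffer pH 5.2 with sodium taurocholate. Signal increase indicates enhancement.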

Sequence of UniProt P54803 (P54803 whole entry, looked up): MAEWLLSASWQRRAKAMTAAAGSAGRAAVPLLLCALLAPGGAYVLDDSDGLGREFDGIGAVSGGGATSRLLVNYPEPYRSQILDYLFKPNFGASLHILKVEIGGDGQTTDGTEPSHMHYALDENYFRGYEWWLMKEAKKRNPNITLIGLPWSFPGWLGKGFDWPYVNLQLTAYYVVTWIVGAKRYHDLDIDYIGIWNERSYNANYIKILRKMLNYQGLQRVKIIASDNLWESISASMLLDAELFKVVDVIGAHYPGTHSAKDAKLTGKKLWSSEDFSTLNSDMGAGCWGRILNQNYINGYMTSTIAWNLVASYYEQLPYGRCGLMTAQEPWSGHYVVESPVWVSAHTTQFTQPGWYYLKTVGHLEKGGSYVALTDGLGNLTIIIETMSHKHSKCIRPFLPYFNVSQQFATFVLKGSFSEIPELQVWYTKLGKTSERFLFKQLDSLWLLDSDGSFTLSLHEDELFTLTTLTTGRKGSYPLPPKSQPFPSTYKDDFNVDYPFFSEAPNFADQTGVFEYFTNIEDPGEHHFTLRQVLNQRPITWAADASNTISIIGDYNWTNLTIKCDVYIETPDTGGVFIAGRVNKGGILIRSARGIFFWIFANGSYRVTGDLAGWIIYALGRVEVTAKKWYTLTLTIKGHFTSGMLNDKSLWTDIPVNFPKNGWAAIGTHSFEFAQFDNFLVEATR

activation, inactive:
CCOc1ccc(CCNC(=O)CCCn2c(=O)c3cccn3c3cccnc32)cc1 -6.84%
Nc1cc(=O)nc(SCC(=O)Nc2ccccc2)n1CCc1ccccc1 -15.3%
CC(=O)Nc1ccc(Nc2ccc3cc(S(=O)(=O)N4CCCCC4)ccc3n2)cc1 -2.21%
O=C(NC1CC(=O)N(c2ccc(Cl)cc2)C1)c1cc2ccccc2o1 (centres undefined) -6.2%
CCCc1ccc(OCC(=O)Nc2sc3c(c2C(=O)OCC)CCC(C(C)(C)C)C3)cc1 (centres undefined) -14.4%
CC(=O)Oc1cc(C(C)C)c(OCCN(C)C)cc1C -9.82%
Cc1ccc2nc3c(cc(C(=O)NC4CCCC4)c(=N)n3C(C)C)c(=O)n2c1 -4.01%
O=c1c2cccnc2n(Cc2cccc(F)c2)c(=O)n1Cc1ccc(F)cc1 -16.1%
CCC(Nc1ccc(-c2nc(-c3cccnc3)no2)cc1[N+](=O)[O-])c1ccccc1 (centres undefined) -15.7%
COc1ccc2[nH]cc(CCNC(=O)Nc3cc(C)cc(C)c3)c2c1 -16.9%
COc1ccccc1Nc1nc(-c2ccccc2)c(CC(=O)O)s1 -11.8%
COc1ccc2c(c1)c1c(c(=O)n(-c3cccc(C)c3)c(=O)n1CC(=O)NCCC1=CCCCC1)n2C -4.98%
CCOC(=O)c1c(-c2ccc(OC)c(OC)c2)csc1NC(=O)c1ccccc1F -9.73%
Cc1cccc(CNS(=O)(=O)c2ccc(-c3coc(C)n3)cc2)c1 -35.1%
CCOC(=O)c1cc(-c2ccc(OC)c(S(=O)(=O)N3CCN(c4ccccc4)CC3)c2)on1 -11.8%
COc1ccc(S(=O)(=O)c2nnn(-c3cccc(Cl)c3)c2N)cc1 -39.3%
Cc1ccccc1OCC(=O)Nc1ccc2nc(SCC(=O)N3CCCC3)sc2c1 -12%
O=C1Cc2cc(S(=O)(=O)Nc3ccc(OC(F)(F)F)cc3)cc3c2N1CCC3 -8.39%
CCOC(=O)c1c(C)oc2nc(C)nc(NCC3CCN(Cc4ccc(F)cc4)CC3)c12 -3.63%
COc1ccc(CNc2ncnc3c2cnn3-c2ccc(Cl)cc2)cc1 -9.95%
COc1cccc(-c2ccc3c(N)c(C(=O)c4ccc(F)cc4)sc3n2)c1 -13.2%
CC(NC(=O)CCCN1C(=O)CCn2nc(-c3cn(C)c4ccccc34)cc21)c1ccccc1 (centres undefined) -4.03%
Fc1ccc(-c2nc3c4c(-c5ccccc5)c(-c5ccccc5)oc4ncn3n2)cc1 4.73%
Cc1cc(N2CCN(C)CC2)nc2ccc(NC(=O)Nc3ccc(F)cc3F)cc12 -9.12%
CCC(Oc1ccccc1)C(=O)N1CCN(Cc2cc(=O)n3nc(-c4cccc(C)c4)sc3n2)CC1 (centres undefined) 1.88%
O=C(Nc1ccc(Cl)c(-c2nc3ccccc3o2)c1)c1cccc2c(Cl)cccc12 -5.85%
COc1ccc(Nc2ccc3cc(S(=O)(=O)N4CCCC4)ccc3n2)cc1OC -9.67%
Cc1ccc(CSC2=Nc3ccccc3C3=NC(CCC(=O)NCc4cccs4)C(=O)N23)c(C)c1 (centres undefined) -11.6%
Cc1ccc(NC(=O)CSc2nncn3c2cc2sccc23)cc1F -7.47%
Cc1ccc(-n2c(=O)c3c(c4cc(C)ccc4n3C)n(CC(=O)NCC3CCCO3)c2=O)cc1 (centres undefined) -8.39%
Cc1ccc(Cl)c(OCC(O)CNC(C)(C)C)c1 (centres undefined) -9.48%
Cc1ccc(NS(=O)(=O)c2c(C)nc3sccn3c2=O)c(Cl)c1 -18.9%
COc1cc(Cl)c(NC(=O)CC(C)S(=O)(=O)c2cc3c(cc2C)NC(=O)CO3)c(OC)c1 (centres undefined) -5.69%
CCC(=O)O[C@H]1[C@H](O[C@@H]2[C@@H](C)[C@H](O[C@H]3C[C@@](C)(OC)[C@@H](O)[C@H](C)O3)[C@@H](C)C(=O)O[C@H](CC)[C@@](C)(O)[C@H](O)[C@@H](C)C(=O)[C@H](C)C[C@@]2(C)O)O[C@H](C)C[C@@H]1N(C)C -9.21%
Cc1ccc(-c2nc3n(n2)C(=O)CC(c2ccc(C)cc2)S3)cc1 (centres undefined) -13.4%
CC(C)c1ccc(NC(=O)c2cc(S(=O)(=O)N3CCc4ccccc4C3)ccc2F)cc1 -5.6%
CCCCOC(=O)c1ccc(NC2=NS(=O)(=O)c3ccccc32)cc1 -15.9%
Cc1cccc(NC(=O)CCn2nc(C)c3c(C)n(-c4ccccc4)nc3c2=O)c1C -23%
Cc1ccc(NC(=O)CCS(=O)(=O)c2ccc3nc(C)sc3c2)c(C)c1 5.97%
Nc1ncnc2c1ncn2[C@@H]1O[C@H](COP(=O)(O)O)[C@@H](O)[C@H]1O -10.9%
CCOc1ccc(CN2C(=O)c3ccccc3Sc3ccc(C(=O)NCCCN4CCOCC4)cc32)cc1 5.08%
COc1ccc(S(=O)(=O)NCc2ccc3c(c2)CCN3C(C)=O)cc1OC -12.4%
Cc1ccc(OCC(=O)N(Cc2nc(-c3ccccc3)no2)C(C)C)cc1C -5.33%
Cc1ccc(S(=O)(=O)N2CCCc3cc(NS(=O)(=O)c4ccccc4)ccc32)cc1 -17.9%
COC(=O)c1ccc([C@H]2Nc3ccc(S(=O)(=O)Nc4ccc(F)cc4)cc3[C@H]3C=CC[C@H]32)cc1 -7.57%
CCOc1ccc(C(=O)Nc2ccc(NC(=O)c3ccccc3)cc2)cc1Br -15.6%
CN(C)c1ncc(C(=O)NCc2ccccc2Cl)cn1 -10%
COc1ccccc1N1CCN(c2c(CN3CCCC3)c(=O)oc3ccccc23)CC1 -11.8%
CCOc1ccc(S(=O)(=O)N(CC(=O)NCCc2ccc(OC)cc2)c2ccccc2)cc1 3.47%
O=C(Nc1ccc(Cl)c(Cl)c1)N(Cc1c[nH]c2ccccc12)C1CCCCC1 -5.24%
COc1ccccc1-c1noc(CSc2nnc(-c3ccccc3)n2-c2ccc(C)c(C)c2)n1 -12.1%
Cc1cc(C)c(/C=C/c2onc(C)c2S(=O)(=O)N2CCC(C(=O)Nc3cccc(C)c3C)CC2)c(C)c1 -3.73%
C[N+]12CCC(CC1)C(OC(=O)C(O)(c1ccccc1)c1ccccc1)C2 (centres undefined) -11.6%
CCOC(=O)CNC(=O)Nc1cc(C(=O)NCc2ccc(C(C)C)cc2)ccc1N1CCCC1 -20.9%
Cc1ccc2[nH]c(=O)c3cc(C(=O)NCc4cccc(Cl)c4)sc3c2c1 5.31%
Cc1cc(OCC(=O)Nc2sc3c(c2C#N)CCC(C)C3)ccc1Cl (centres undefined) -9.41%
Cc1ccc(S(=O)(=O)N2CCCC2C(=O)Nc2ccc(Br)cc2)cc1 (centres undefined) -6.36%
CCOc1ccc(C(=O)c2cn(Cc3cccc(OC)c3)c3cc4c(cc3c2=O)OCO4)cc1 -17.4%
O=C(CSc1ncc(-c2ccc(Cl)cc2)[nH]1)Nc1ccccc1F -13.3%
